Laboratory results published in paper PMC5983873.
No constants are given. Whether binding was seen depends on the method and setting. In cells and extracts the contact can be indirect. Some binding calls cover weakened binding; strength is not graded here.

Chains of the proteins cited; added tags and fusions are not shown.
UniProt P12538: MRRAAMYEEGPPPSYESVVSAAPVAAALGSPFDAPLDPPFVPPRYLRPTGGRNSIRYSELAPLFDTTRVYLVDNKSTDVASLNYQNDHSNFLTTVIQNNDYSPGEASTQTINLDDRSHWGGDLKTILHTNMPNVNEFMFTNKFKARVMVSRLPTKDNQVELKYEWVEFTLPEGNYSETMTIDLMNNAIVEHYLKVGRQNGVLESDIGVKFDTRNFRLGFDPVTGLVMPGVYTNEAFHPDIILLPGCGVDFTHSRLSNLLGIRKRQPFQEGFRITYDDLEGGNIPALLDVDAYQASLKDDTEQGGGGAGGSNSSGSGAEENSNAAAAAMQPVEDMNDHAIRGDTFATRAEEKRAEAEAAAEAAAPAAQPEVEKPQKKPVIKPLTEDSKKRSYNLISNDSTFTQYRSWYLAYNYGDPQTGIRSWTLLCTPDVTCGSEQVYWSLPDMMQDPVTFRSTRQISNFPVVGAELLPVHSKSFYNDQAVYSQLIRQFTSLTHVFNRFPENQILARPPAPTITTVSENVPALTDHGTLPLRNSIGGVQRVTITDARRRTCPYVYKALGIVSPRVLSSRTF
UniProt Q07866: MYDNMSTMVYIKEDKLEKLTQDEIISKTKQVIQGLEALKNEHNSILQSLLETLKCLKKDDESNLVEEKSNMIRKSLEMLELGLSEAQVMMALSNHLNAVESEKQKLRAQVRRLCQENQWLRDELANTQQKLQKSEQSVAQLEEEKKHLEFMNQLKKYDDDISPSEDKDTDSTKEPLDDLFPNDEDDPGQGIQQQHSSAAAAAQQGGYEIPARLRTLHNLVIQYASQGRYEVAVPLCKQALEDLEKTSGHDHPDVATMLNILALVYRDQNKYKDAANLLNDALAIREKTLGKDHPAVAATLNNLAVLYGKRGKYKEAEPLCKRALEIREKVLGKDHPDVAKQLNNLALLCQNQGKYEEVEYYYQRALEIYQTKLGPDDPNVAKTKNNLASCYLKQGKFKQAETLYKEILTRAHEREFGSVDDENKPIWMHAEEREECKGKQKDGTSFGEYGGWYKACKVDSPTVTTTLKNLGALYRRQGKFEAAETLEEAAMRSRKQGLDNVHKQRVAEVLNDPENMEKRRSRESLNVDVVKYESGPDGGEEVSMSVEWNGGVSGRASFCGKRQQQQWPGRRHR
UniProt Q9H0B6: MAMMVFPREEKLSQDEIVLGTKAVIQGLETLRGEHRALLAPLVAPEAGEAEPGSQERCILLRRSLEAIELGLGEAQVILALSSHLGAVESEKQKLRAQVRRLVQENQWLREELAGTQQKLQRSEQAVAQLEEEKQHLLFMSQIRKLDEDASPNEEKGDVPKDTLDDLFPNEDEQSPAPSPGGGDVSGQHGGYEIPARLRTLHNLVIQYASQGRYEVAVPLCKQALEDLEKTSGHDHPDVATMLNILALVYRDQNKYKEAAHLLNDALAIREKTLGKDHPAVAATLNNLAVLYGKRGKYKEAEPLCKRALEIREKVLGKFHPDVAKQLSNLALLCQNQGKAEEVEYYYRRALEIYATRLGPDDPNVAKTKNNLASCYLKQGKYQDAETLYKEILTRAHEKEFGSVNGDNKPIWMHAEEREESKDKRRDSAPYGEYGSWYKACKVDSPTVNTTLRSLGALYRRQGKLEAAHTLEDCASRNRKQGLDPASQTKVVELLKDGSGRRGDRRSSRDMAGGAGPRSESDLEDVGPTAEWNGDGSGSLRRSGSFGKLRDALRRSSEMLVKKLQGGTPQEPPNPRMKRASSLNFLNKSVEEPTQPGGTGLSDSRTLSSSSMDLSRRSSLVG
UniProt P33176: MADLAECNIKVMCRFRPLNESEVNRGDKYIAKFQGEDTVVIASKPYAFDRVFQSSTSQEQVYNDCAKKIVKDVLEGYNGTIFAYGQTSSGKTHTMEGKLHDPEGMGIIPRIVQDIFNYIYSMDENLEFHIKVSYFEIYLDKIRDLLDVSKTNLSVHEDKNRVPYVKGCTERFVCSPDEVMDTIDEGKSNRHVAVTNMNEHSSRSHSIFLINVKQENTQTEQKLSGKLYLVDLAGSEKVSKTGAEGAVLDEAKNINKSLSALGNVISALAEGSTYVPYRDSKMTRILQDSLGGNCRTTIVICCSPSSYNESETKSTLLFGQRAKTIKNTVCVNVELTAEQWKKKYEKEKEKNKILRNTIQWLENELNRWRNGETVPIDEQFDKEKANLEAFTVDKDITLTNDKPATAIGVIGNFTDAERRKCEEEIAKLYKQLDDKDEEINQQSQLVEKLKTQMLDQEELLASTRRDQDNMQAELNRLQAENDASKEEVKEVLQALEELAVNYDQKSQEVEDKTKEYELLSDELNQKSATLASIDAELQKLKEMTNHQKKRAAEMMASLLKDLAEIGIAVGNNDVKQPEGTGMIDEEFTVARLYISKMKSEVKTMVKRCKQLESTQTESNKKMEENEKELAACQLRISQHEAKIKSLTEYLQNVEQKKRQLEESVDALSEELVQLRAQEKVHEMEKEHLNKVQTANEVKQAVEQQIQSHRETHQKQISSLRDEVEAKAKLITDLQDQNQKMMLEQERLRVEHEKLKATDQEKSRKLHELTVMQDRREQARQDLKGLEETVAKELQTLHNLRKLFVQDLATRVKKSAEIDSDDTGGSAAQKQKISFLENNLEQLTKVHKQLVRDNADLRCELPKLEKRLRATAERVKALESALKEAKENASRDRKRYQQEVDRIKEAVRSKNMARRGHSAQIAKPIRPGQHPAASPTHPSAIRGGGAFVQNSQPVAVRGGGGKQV
UniProt Q12840: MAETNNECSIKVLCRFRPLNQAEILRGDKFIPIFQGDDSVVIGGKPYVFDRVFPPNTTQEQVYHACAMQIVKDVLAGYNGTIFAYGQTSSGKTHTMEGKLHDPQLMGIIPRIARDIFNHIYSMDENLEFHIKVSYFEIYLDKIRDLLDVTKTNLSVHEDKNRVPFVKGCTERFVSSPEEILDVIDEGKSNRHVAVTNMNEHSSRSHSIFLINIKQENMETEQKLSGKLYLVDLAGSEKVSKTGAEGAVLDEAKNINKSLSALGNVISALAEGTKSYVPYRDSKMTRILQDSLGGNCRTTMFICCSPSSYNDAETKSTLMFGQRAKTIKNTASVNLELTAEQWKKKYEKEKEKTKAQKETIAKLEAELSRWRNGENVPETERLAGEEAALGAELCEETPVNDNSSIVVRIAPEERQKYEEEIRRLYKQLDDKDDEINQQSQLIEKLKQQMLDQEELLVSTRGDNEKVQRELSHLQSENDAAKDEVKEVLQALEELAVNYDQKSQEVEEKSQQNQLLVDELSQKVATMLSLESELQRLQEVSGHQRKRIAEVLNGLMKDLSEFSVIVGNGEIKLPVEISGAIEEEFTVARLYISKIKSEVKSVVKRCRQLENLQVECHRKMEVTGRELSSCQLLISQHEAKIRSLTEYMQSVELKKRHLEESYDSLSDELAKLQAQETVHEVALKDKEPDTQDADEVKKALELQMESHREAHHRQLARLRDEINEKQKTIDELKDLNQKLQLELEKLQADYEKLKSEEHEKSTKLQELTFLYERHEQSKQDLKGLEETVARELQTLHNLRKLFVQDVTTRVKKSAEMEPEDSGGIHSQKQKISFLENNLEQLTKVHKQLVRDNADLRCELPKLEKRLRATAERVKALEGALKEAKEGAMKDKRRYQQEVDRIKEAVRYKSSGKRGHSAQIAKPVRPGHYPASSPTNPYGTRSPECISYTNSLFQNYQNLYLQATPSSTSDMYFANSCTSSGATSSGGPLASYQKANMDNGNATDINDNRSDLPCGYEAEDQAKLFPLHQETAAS
UniProt O60282: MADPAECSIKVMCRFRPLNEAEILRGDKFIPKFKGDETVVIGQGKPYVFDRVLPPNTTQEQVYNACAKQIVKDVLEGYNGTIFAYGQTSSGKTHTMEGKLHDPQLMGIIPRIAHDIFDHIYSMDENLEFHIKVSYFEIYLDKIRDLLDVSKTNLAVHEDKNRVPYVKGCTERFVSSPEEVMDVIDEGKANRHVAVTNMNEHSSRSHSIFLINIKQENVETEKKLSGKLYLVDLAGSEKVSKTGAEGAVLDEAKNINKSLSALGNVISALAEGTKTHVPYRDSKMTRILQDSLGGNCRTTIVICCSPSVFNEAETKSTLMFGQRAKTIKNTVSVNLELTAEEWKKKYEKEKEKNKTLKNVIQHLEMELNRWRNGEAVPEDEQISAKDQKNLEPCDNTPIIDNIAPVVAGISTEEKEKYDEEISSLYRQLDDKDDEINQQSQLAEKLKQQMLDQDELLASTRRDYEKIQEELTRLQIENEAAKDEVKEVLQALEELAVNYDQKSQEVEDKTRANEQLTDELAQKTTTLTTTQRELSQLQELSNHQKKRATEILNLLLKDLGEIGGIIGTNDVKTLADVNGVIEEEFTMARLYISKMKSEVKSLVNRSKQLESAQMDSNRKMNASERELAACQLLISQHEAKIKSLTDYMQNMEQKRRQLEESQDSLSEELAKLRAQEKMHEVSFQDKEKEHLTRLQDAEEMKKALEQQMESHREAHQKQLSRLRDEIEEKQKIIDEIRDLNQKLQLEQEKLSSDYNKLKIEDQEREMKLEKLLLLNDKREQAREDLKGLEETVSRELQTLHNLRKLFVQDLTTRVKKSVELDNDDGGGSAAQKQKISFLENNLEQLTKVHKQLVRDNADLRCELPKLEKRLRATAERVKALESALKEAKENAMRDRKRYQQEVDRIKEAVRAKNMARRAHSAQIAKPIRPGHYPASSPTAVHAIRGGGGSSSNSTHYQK

How the values were obtained:
[1] = biological target: myc-tagged penton base (human adenovirus 5 (Ad5)) (UniProt P12538); test: co-IP; myc-tagged penton base co-expressed with GFP, GFP-Kif5A, GFP-Kif5B or RFP-Kif5C in 293A cells for 24 h; anti-myc immunoprecipitation of lysates (RIPA buffer with 1% NP40); immunoblot
[2] = biological target: GFP-tagged full length KLC1 (UniProt Q07866); test: co-IP; GFP-Kif5B, GFP-KLC1 or GFP-KLC2 co-expressed with penton base-myc in 293A cells for 24 h; anti-GFP immunoprecipitation of lysates; immunoblot
[3] = biological target: GFP-tagged full length KLC2 (UniProt Q9H0B6); test: as above
[4] = biological target: GFP-tagged full length Kif5B (UniProt P33176); test: as above

Substance	binding [1]	binding [2]	binding [3]	binding [4]
GFP-tagged full length Kif5A (from UniProt Q12840 1-1032)	binds			
GFP-tagged full length Kif5B (from UniProt P33176 1-963)	binds			
RFP-tagged Kif5C (from UniProt O60282 1-957)	binds			
myc-tagged penton base (from UniProt P12538 1-571)		no binding	no binding	binds
